Source: the supplement of paper PMC11417369
Some of the results follow.

What follows are sequences tested on PfSIP2 AP2 domain 1 (GST-tagged) (assay: gcPBM binding intensity (ln(normalized median fluorescence intensity)); higher = stronger DNA binding).
Method in brief: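 The highest Masliner-normalised natural-log median intensity across replicate spots of either probe orientation is reported as binding intensity. GST-tagged P. falciparum DNA-binding domains expressed in E. coli were applied for 1 h to an Agilent 4 × 180k array of primer-extended double-stranded 36-bp intergenic genomic probes plus negative controls, and bound protein was detected with Alexa488 anti-GST antibody and scanned at 488 nm.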

Sequence	gcPBM binding intensity (ln)
AATTTTTATTTGTACACACATACATATATATTATAT [CACACA_site993]	7.41
TTTTTATTTACACTTTTTATTTATATATTATGTACG [CACACA_negctrl_site158]	6.98
TGTCATCATCTTAAATGTACAAAAAGGAAATATAAA [XGTACX_site1529]	7.06
TTTATATATTTCATAATACACACGAAAAAAAAAAAA [CACACA_site2970]	6.98
ATAAATAATATAAATACACACTAAAAAAAATATATA [CACACA_site4456]	6.78
ATATAATCAGCTTCTCTTTTATGCTAAAAAAAAAAA [CACACA_negctrl_site1310]	6.97
TTTTTATTAAGACATGCATGGAAACGCACTATTTTA [TGCATGCA_site999]	9.74
ATACGAAGTACGTACACACACTTATATGTTACTAAA [CACACA_site7812]	7.14
TATATATGCATTAAATGATGTTCCTGTTTTTTAAAA [CACACA_negctrl_site1378]	7.02
TTTATATCATTTCTTAAAAAAAAGGAGGTAATAGAC [TGCATGCA_negctrl_site555]	8.44
AATAAATAAATATATACACACATATATGTCTACATA [CACACA_site3158]	7.02
TTGCATTACGAACATACACACAGAATAACTGAAAAC [CACACA_site3025]	7.25
TTCGATGAATATACAAGTACATATCCTTACGAACTG [XGTACX_site1650]	6.93
ATATATATATATATATATATATATATATATTATATA [XGTACX_negctrl_site48]	9.63
AAATAATATATTCTATATAATAAATTATAAATATAA [GTGCAC_negctrl_site558]	6.58
ATATGACTGTTCATTTGTACGTATAATTATATACGT [XGTACX_site3372]	7.09
ATACAACTAATAAGTAGTACAATATACATATATTAT [XGTACX_site7086]	7.02
TTTTTTTTTTTTTTTTATTTATATATATATATATAT [CACACA_negctrl_site582]	9.19
AAAAAAAATGAAAGGTGTACACATACAAACATAGAA [XGTACX_site3517]	7.31
AAATATTTTTAGAGTGCATGTAATAAAAATATAATG [TGCATGCA_site19]	10.1
TTAATTATATCAGGACGTACTAATATAAATATATAT [XGTACX_site8909]	6.99
GGGATATATTATTATACACACATATATAAAAGCTTT [CACACA_site2445]	7.09

Sequence	gcPBM binding intensity (ln)
AAATGAGATATAAAATGTACATATTGTAAGTAAACA [XGTACX_site1237]	7.09
GTGCAAAATATTTTTACACACAAATTTTTACAACAG [CACACA_site3357]	9.32
AAAAATAAATAAGACACACACAAAAAAAAAAAAAAA [CACACA_site1432]	6.82
AAGATCGCATGAAATGAACACACATAAAAAAAATAT [CACACA_site9353]	7.05
TAAAAAATTATATTCACACACATACCCATATATATA [CACACA_site4458]	7.4
AATGTAACAACTTTTTGTACTTAAGAAATAATAAAT [XGTACX_site3310]	6.84
TAAAATTTATAAACTACACACATATATATAGTAATA [CACACA_site3728]	6.82
TAATTTAGATATATAAAGAATTAAAGTTAACATTCT [CACACA_negctrl_site726]	6.71
TTTTTCAGATCCTATATAGTATCATATAAATTCCAT [CACACA_negctrl_site56]	6.87
TTAAGAAAAAAAAAAAGTACACACATATAATATATA [XGTACX_site6268]	7.27
ATATATATATAATAAAGTACAAATTCTAAATGATAT [XGTACX_site570]	8.92
TATCTTATGTCTGAAAGTACAAATTTTTTTCTACTT [XGTACX_site2208]	6.82
ATTATCTATCGTTTTTGTACTTACACCTTAATACAA [XGTACX_site7337]	7.4
ACTACGAATGGTAGAGTGCAGTCTGGAGAAAAGTAC [GTGCAC_site9681]	9.11
CTTTTTTTTTTTTTTGCGCACTGTTTAAAGGGAAAT [GTGCAC_site9815]	9.19
TATGAATATCTATACACACACATATATATACTCACT [CACACA_site1597]	7.11
CAAAGATATATAAACACACAAATATAACATATATAC [CACACA_site7395]	6.91
TATATTATTATATATTGTACTTTTTATATTTGCATT [XGTACX_site2978]	6.95
TATGTATATTTTTTTGTGCACATATATATATATATA	9.54
TTTCTTATATAAGTGTACTAAAATATATATATGCAA [GTGCAC_negctrl_site546]	7.24
ATTTTTTTTTTAAAATGTACATGAGAAATTGTATAT [XGTACX_site425]	7.26
TATATTATTAATTAAGCACACATTATTTTTATAATA [CACACA_site3982]	6.89

Sequence	gcPBM binding intensity (ln)
TAACATAATATAGACACACACATGTACATATGCCAA [CACACA_site1842]	7.04
TAAAAAAATAAATATACACACATATATAAATATGTA [CACACA_site6641]	6.78
TACTATATCGATACCAGTACAGATTTATAAATAATA [XGTACX_site7491]	6.94
AAATATAATAATAATTTAAGAATCTAATATTTTATA [CACACA_negctrl_site831]	6.59
TATATTAAGTATAAGACACACATATAGTAATAGAAA [CACACA_site5176]	6.83
TTATAAAAAAAAATAACACACAGACATAAGAATAAA [CACACA_site9383]	7.04
AAGTGTCAAAGTTACACACACAAACTTGTCATTTTT [CACACA_site837]	6.66
ATATAACTTTTCTTAACACACAAAAAACAAAAATAA [CACACA_site2380]	7.24
GGTATACATATTAAATGTACATATTTTAACAATAAG [XGTACX_site4868]	7.1
ATATAATTATATAAATGTACTCATTCGTTATTTTGC [XGTACX_site6132]	6.99
TTATTCAGAAAAAAAAAAAAAAAAAAAAAAAAAAAA [CACACA_negctrl_site1662]	7.12
TATATATATGTGCAGTGTACTTTTTTTTTCTGTAAG [XGTACX_site3424]	7.79
ATATGTAAAGAAAAGTAAACACTAATTTTAAACAAT [CACACA_negctrl_site11]	6.88
TTTTTTTTAATTGTGATACGTATATTATTTTTTGAT [TGCATGCA_negctrl_site318]	6.99
ATTTTTAATATTATTACACACACTAATAAAAAAAAA [CACACA_site8265]	7.05
GAGAAGACATTACACAGTACCCAGGAAATCTACGGA [XGTACX_site1993]	7.1
ATATATATATATATATGTACTTAATATTTCTTATTT [XGTACX_site6206]	9.42
TCGACAAATGTATATACACACATTTGTAACATAAAT [CACACA_site560]	6.84
TATAAAGGTGAAATTTGTACATAGTCATTTTTTAAT [XGTACX_site4811]	6.86
TGATTAAAAGAGGGAAAAAAAAAAAAAAAAAAAAAA [CACACA_negctrl_site896]	7.12
TGACGAAAAAAAAGGGTGCTTAGTATAACTTTAAAG	8.7
TTCTTTTTTAAACACACACACACAAGAAAATATATA [CACACA_site5680]	7.49

Sequence	gcPBM binding intensity (ln)
GACTTTTCATTTATAGTGCAAGTTTTTTTTTTTTTT [GTGCAC_site9698]	8.38
ATAAATATAAAAAAATGTACATATAGTAATACATAC [XGTACX_site508]	7.2
GAAATAAAAAGAAATGCATGTAATTTTTTTTTTTTT [TGCATGCA_site928]	6.71
ATAAGTATAAGAATCAGTACACAGTTTCTACATACT [XGTACX_site5834]	6.83
TATATATCATTTAAAACACACAAAAAAAAAAGTTAT [CACACA_site6191]	6.93
ATTAAAACCAATTAAAAAAAATTTATAATGGAAGCA [TGCATGCA_negctrl_site273]	6.77
TATTATTGTTGTTCATGTACACACTATAATAAAAGC [XGTACX_site8957]	7.29
GAGATAAAATAAAACACACACATATATATATATAAT [CACACA_site5246]	7.26
AATGACTAAATTTAAACACACAAGGGGAGTTTACTT [CACACA_site918]	6.69
TTGTATTTTTAAATGACACACACATATATATATATA [CACACA_site8481]	9.19
AATAAATAAGCACATACACACATACATACATACATA [CACACA_site6075]	7.12
AAGTTATAAAAATAAAGTACAAAGTAGCTATTTTTT [XGTACX_site3144]	6.84
TAGGCGTTTAATAAAAGTACCCACACATATATTATT [XGTACX_site1932]	7
TTTATTATCGTTCTCATACACACAAAATATACATAC [CACACA_site2642]	7.33
ATTTAACAACTTCAAACACACAATATATATATATAT [CACACA_site2093]	9.46
AATTCAAATATAAATACACACACATAGCTACAAAAT [CACACA_site9386]	7.04
AAATATATATGTGGGGGTACTAATAAAAAAACCCCT [XGTACX_site2657]	7.07
CATAAATTAATAGTCACACACGTATTTTTTATATAT [CACACA_site2526]	6.95
TTACACAAACAAATTATGGACACATAAGTAAAAGGA [CACACA_negctrl_site1622]	7.27
TGAAAAAAAAAAAAAAAAAAAAGAAAAAAAAAAAAA [CACACA_negctrl_site709]	6.59
GAAAAAAGAAAAAAAAGTACATATATTTAATAAGAC [XGTACX_site6912]	7.43
TTATCCATAAAAAAGTGTACGCACTAAAATTGAAAA [XGTACX_site5460]	7.92
